According to PubChem BioAssay AID463173 (ICCB-Longwood Screening Facility, Harvard Medical School, 2010):
About 4,300 (8.3%) of roughly 52,000 compounds were called active. Rule as the data show it: active = survival mostly below about 52% (no sharp cut-off); inactive = mostly above about 56%. This is one part of the list.

test system: DeltatarO mutant; assay: growth inhibition of S. aureus wild type versus tarO mutant, primary screen, teichoic acid synthesis inhibitors, RN4220, OD600 (AID 463173); conditions: OD600, 18 h, hits give low values, screened at 18.75 µg/mL (by protocol)

**Q.** CCN(C(=O)C(NS(=O)(=O)c1cccc2nsnc12)c1ccccc1)c1ccccc1 (stereo not given) was tested. Which survival did it give?
**A.** Its survival is inactive: 123%.

**Q.** How did the survival turn out when COc1ccc(-c2ccnc3c2c(=O)n(C)c(=O)n3C)cc1OC was run?
**A.** Its survival is inactive: 78%.

**Q.** How did the survival turn out when COCCCNC(=O)CCCN1C(=O)CCn2nc(-c3cn(C)c4ccccc34)cc21 was run?
**A.** The survival was inactive: 94%.

**Q.** For Cc1ccc(C)c(N2CCN(CCCNc3ncnc4onc(-c5ccc(Cl)cc5)c34)CC2)c1, which survival is on record?
**A.** The survival was inactive: 73%.

**Q.** How did the survival turn out when Cc1ccc(NC(=O)[C@H](CSCc2ccccc2)N2Cc3ccccc3C2=O)cc1 was run?
**A.** Its survival is inactive: 73%.

**Q.** With COc1ccc(OC)c(CNC(=O)CCS(=O)(=O)c2ccc3c(c2)oc(=O)n3C)c1 as the compound, how does the survival read?
**A.** Its survival is inactive: 83%.

**Q.** CCOc1ccc(-c2cc(C)n3nc(C(=O)Nc4cc(Cl)ccc4O)cc3n2)cc1 was tested. Which survival did it give?
**A.** The survival was inactive: 62%.

**Q.** With COc1cccc(NC(=O)Cn2c(=O)n(Cc3nc(-c4ccccc4)no3)c(=O)c3ccccc32)c1 as the compound, how does the survival read?
**A.** The survival was inactive: 86%.

**Q.** With COc1ccccc1/C=C(\C#N)c1nc(-c2cc3ccccc3oc2=O)cs1 as the compound, how does the survival read?
**A.** Its survival is active: 56%.

**Q.** With CCC(=O)Nc1ccc(S(=O)(=O)NCc2cccn2Cc2cccc(C)c2)cc1 as the compound, how does the survival read?
**A.** The survival was inactive: 80%.

**Q.** With CCOC(=O)N1CCC(NC(=O)c2cnn(-c3ccccc3)c2C2CCN(C(=O)OC(C)(C)C)CC2)CC1 as the compound, how does the survival read?
**A.** The survival was inactive: 117%.

**Q.** Which survival does the source give for Cc1ccc(C(=O)NC(C)C)cc1C here?
**A.** Its survival is inactive: 66%.

**Q.** How did the survival turn out when COc1ccc(S(=O)(=O)NCCc2sc(-c3ccccc3)nc2C)cc1OC was run?
**A.** The survival was inactive: 95%.

**Q.** Which survival does the source give for CCc1ccccc1NC(=O)CSc1ncc2c(n1)-c1ccccc1N(C)S2(=O)=O here?
**A.** Its survival is inactive: 124%.

**Q.** With COc1ccc(-c2nc3cc(NC(=O)COc4ccc(F)cc4)ccc3o2)cc1 as the compound, how does the survival read?
**A.** Its survival is inactive: 62%.

**Q.** How did the survival turn out when CN1C(=O)CSC1=Nc1cccc(C(=O)O)c1 was run?
**A.** The survival was inactive: 89%.

**Q.** CN1/C(=N\N)c2cccc3cccc1c23 was tested. Which survival did it give?
**A.** The survival was inactive: 83%.

**Q.** With COc1ccc(S(=O)(=O)N2CCC(C(=O)N3CCCC3)CC2)cc1OC as the compound, how does the survival read?
**A.** The survival was inactive: 84%.

**Q.** How did the survival turn out when Cc1csc2nc(-c3cccc(NC(=O)c4ccc(S(N)(=O)=O)cc4)c3)cn12 was run?
**A.** Its survival is inactive: 122%.

**Q.** How did the survival turn out when O=C(CCNS(=O)(=O)c1cccc2nsnc12)Nc1ccc(F)cc1 was run?
**A.** Its survival is inactive: 56%.

**Q.** With Cn1c(=O)c2c(-c3ccccc3)n3c(c2n(C)c1=O)C(c1cc(Cl)ccc1O)Nc1ccccc1-3 (stereo not given) as the compound, how does the survival read?
**A.** The survival was active: 1%.

**Q.** For O=C(CSc1nnc(-c2cccnc2)o1)OC1CCCCC1, which survival is on record?
**A.** Its survival is inactive: 53%.

**Q.** With CSc1nc(NC(C)C)nc(N(C)C(N)=O)n1 as the compound, how does the survival read?
**A.** Its survival is inactive: 104%.

**Q.** How did the survival turn out when Cc1ccc2cccc(NC(=O)c3ccc(-c4ccc(Cl)cc4Cl)o3)c2n1 was run?
**A.** Its survival is inactive: 67%.

**Q.** How did the survival turn out when COc1ccc(OC)c(CNC(=O)c2cc(=O)[nH]c3ccc(S(=O)(=O)N4CCCCC4C)cc23)c1 (stereo not given) was run?
**A.** The survival was active: 6%.
